# The supplement of paper PMC8728848
# Some of the results follow.
# B1: FaeGac (Escherichia coli) (protein)
# chain: WMTGDFNGSVDIGGSITADDYRQKWEWKVGTGLNGFGNVLNDLTNGGTKLTITVTGNKPILLGRTKEAFATPVTGGVDGIPHIAFTDYEGASVVLRKPDGETNKNGLAYFVLPMKNAGGTKVGSVKVNASYAGVLGRGGVTSADGELLSLFADGLSSIFYGGLPRGSELSAGSAAAARTKLFGSLSRDDILGQIQRVNANVTSLVDVAGSYRENMEYTDGNVVSAAYALGIANGQTIEATFNQAVTTSTQWSAPLNVAITYY
# Tests used:
# Assay in all cases: glycan array binding signal (z-score within array); higher = stronger binding
# Conditions in all cases: glycan notation: IUPAC condensed, linker removed
# [1] = biological target: GlcNAc(a1-3)Gal(b1-4)GlcNAc
# Procedure, shortened: (§1)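 The Consortium for Functional Glycomics database supplied 3228 glycan arrays, of which those lacking an available protein sequence were dropped. The binding signal, a within-array Z-score, was averaged across arrays of the same protein sequence and across linkers. Negative scores can be read as non-binding.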
# [2] = biological target: GlcNAc(a1-6)Gal(b1-4)GlcNAc
# Procedure, shortened: as §1
# [3] = biological target: GlcNAc(b1-2)Gal(b1-3)GalNAc
# Procedure, shortened: as §1
# [4] = biological target: GlcNAc(b1-2)Man(a1-3)[GlcNAc(b1-2)Man(a1-6)]Man(b1-4)GlcNAc(b1-4)GlcNAc
# Procedure, shortened: as §1
# GlcNAc(b1-3)Gal = biological target: GlcNAc(b1-3)Gal
# Procedure, shortened: as §1
# [5] = biological target: GlcNAc(b1-3)Gal(b1-3)GalNAc
# Procedure, shortened: as §1
# GlcNAc(b1-3)Gal(b1-4)Glc = biological target: GlcNAc(b1-3)Gal(b1-4)Glc
# Procedure, shortened: as §1
# [6] = biological target: GlcNAc(b1-3)Gal(b1-4)GlcNAc
# Procedure, shortened: as §1
# [7] = biological target: GlcNAc(b1-3)Gal(b1-4)GlcNAc(b1-3)Gal(b1-4)GlcNAc
# Procedure, shortened: as §1
# GlcNAc(b1-3)GalNAc = biological target: GlcNAc(b1-3)GalNAc
# Procedure, shortened: as §1
# [8] = biological target: GlcNAc(b1-3)[GlcNAc(b1-6)]Gal(b1-4)GlcNAc
# Procedure, shortened: as §1
# [9] = biological target: GlcNAc(b1-3)[GlcNAc(b1-6)]GalNAc
# Procedure, shortened: as §1
# [10] = biological target: GlcNAc(b1-3)[GlcNAc(b1-6)]GlcNAc(b1-4)GlcNAc
# Procedure, shortened: as §1
# [11] = biological target: GlcNAc(b1-4)Gal(b1-4)GlcNAc
# Procedure, shortened: as §1
# [12] = biological target: GlcNAc(b1-4)GlcNAc(b1-4)GlcNAc
# Procedure, shortened: as §1
# [13] = biological target: GlcNAc(b1-4)GlcNAc(b1-4)GlcNAc(b1-4)GlcNAc(b1-4)GlcNAc
# Procedure, shortened: as §1
# [14] = biological target: GlcNAc(b1-4)GlcNAc(b1-4)GlcNAc(b1-4)GlcNAc(b1-4)GlcNAc(b1-4)GlcNAc
# Procedure, shortened: as §1
# [15] = biological target: GlcNAc(b1-4)[GlcNAc(b1-6)]GalNAc
# Procedure, shortened: as §1
# [16] = biological target: GlcNAc(b1-6)Gal(b1-4)GlcNAc
# Procedure, shortened: as §1
# GlcNAc(b1-6)GalNAc = biological target: GlcNAc(b1-6)GalNAc
# Procedure, shortened: as §1
# Kdn(a2-3)Gal(b1-3)GlcNAc = biological target: Kdn(a2-3)Gal(b1-3)GlcNAc
# Procedure, shortened: as §1
# Kdn(a2-3)Gal(b1-4)GlcNAc = biological target: Kdn(a2-3)Gal(b1-4)GlcNAc
# Procedure, shortened: as §1
# [17] = biological target: Man(a1-2)Man(a1-2)Man(a1-3)Man
# Procedure, shortened: as §1
# [18] = biological target: Man(a1-2)Man(a1-2)Man(a1-6)[Man(a1-3)]Man
# Procedure, shortened: as §1
# Man(a1-2)Man(a1-3)Man = biological target: Man(a1-2)Man(a1-3)Man
# Procedure, shortened: as §1
# [19] = biological target: Man(a1-2)Man(a1-3)[Man(a1-2)Man(a1-6)]Man
# Procedure, shortened: as §1
# [20] = biological target: Man(a1-2)Man(a1-3)[Man(a1-2)Man(a1-6)]Man(a1-6)[Man(a1-2)Man(a1-2)Man(a1-3)]Man(b1-4)GlcNAc(b1-4)GlcNAc
# Procedure, shortened: as §1
# [21] = biological target: Man(a1-2)Man(a1-3)[Man(a1-6)]Man(a1-6)[Man(a1-2)Man(a1-3)]Man(b1-4)GlcNAc(b1-4)GlcNAc
# Procedure, shortened: as §1
# [22] = biological target: Man(a1-2)Man(a1-6)[Man(a1-3)]Man(a1-6)[Man(a1-2)Man(a1-2)Man(a1-3)]Man(b1-4)GlcNAc(b1-4)GlcNAc
# Procedure, shortened: as §1
# Man(a1-3)[Man(a1-6)]Man = biological target: Man(a1-3)[Man(a1-6)]Man
# Procedure, shortened: as §1
# [23] = biological target: Man(a1-3)[Man(a1-6)]Man(a1-6)[Man(a1-2)Man(a1-3)]Man(b1-4)GlcNAc(b1-4)GlcNAc
# Procedure, shortened: as §1
# [24] = biological target: Man(a1-3)[Man(a1-6)]Man(a1-6)[Man(a1-3)]Man(b1-4)GlcNAc(b1-4)GlcNAc
# Procedure, shortened: as §1
# [25] = biological target: Man(a1-3)[Man(a1-6)]Man(b1-4)GlcNAc(b1-4)GlcNAc
# Procedure, shortened: as §1
# Man(b1-4)GlcNAc = biological target: Man(b1-4)GlcNAc
# Procedure, shortened: as §1
# Neu5Ac(a2-3)Gal = biological target: Neu5Ac(a2-3)Gal
# Procedure, shortened: as §1
# [26] = biological target: Neu5Ac(a2-3)Gal(b1-3)GalNAc
# Procedure, shortened: as §1
# [27] = biological target: Neu5Ac(a2-3)Gal(b1-3)GalNAc(b1-3)Gal(a1-4)Gal(b1-4)Glc
# Procedure, shortened: as §1
binder,measurement,setting,value
B1,glycan array binding signal (z-score),[1],0.229
same,glycan array binding signal (z-score),[2],0.581
same,glycan array binding signal (z-score),[3],0.196
same,glycan array binding signal (z-score),[4],-0.345
same,glycan array binding signal (z-score),GlcNAc(b1-3)Gal,-0.133
same,glycan array binding signal (z-score),[5],-0.429
same,glycan array binding signal (z-score),GlcNAc(b1-3)Gal(b1-4)Glc,-0.621
same,glycan array binding signal (z-score),[6],-0.743
same,glycan array binding signal (z-score),[7],-0.716
same,glycan array binding signal (z-score),GlcNAc(b1-3)GalNAc,0.451
same,glycan array binding signal (z-score),[8],-0.533
same,glycan array binding signal (z-score),[9],0.89
same,glycan array binding signal (z-score),[10],-0.614
same,glycan array binding signal (z-score),[11],0.012
same,glycan array binding signal (z-score),[12],0.042
same,glycan array binding signal (z-score),[13],-0.377
same,glycan array binding signal (z-score),[14],-0.635
same,glycan array binding signal (z-score),[15],0.219
same,glycan array binding signal (z-score),[16],1.37
same,glycan array binding signal (z-score),GlcNAc(b1-6)GalNAc,-0.127
same,glycan array binding signal (z-score),Kdn(a2-3)Gal(b1-3)GlcNAc,-0.579
same,glycan array binding signal (z-score),Kdn(a2-3)Gal(b1-4)GlcNAc,-0.204
same,glycan array binding signal (z-score),[17],-0.088
same,glycan array binding signal (z-score),[18],3.1
same,glycan array binding signal (z-score),Man(a1-2)Man(a1-3)Man,-0.607
same,glycan array binding signal (z-score),[19],0.358
same,glycan array binding signal (z-score),[20],-0.36
same,glycan array binding signal (z-score),[21],0.527
same,glycan array binding signal (z-score),[22],0.752
same,glycan array binding signal (z-score),Man(a1-3)[Man(a1-6)]Man,-0.141
same,glycan array binding signal (z-score),[23],1.42
same,glycan array binding signal (z-score),[24],0.136
same,glycan array binding signal (z-score),[25],0.303
same,glycan array binding signal (z-score),Man(b1-4)GlcNAc,-0.784
same,glycan array binding signal (z-score),Neu5Ac(a2-3)Gal,-0.855
same,glycan array binding signal (z-score),[26],-0.785
same,glycan array binding signal (z-score),[27],-0.317
